This passage reports binding signal results from paper PMC7819943, “Rice protein-binding microarrays: a tool to detect cis-acting elements near promoter regions in rice”.

This is one part of the list.

In this assay the target is T1, OsWOX13 (Oryza sativa, UniProt Q5QMM3 1-267).
T1 sequence: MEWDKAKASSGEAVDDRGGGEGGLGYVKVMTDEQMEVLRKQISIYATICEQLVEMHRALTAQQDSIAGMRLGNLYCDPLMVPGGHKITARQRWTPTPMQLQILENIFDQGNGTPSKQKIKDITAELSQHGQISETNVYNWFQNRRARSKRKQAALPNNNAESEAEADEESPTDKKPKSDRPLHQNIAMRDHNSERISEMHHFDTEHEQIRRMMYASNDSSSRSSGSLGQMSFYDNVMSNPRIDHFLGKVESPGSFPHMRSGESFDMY
Kind of assay: protein-binding microarray (RPBM); PBS, 2% BSA, 51.3 ng/ul salmon testes DNA, 50 uM zinc acetate, 200 nM TF, 25 C, 1 h; high values mean tight binding. To be noted: protein: recombinant; tags: N-terminal polyhistidine and DsRed monomer fusion (pET32a); label: CyDye5-dUTP incorporated in the synthesized complementary strand; 3' TTTTT single-stranded linker to array surface; dsDNA, one strand shown. The method in brief:
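Binding signal is defined as the fluorescence intensity of each feature in arbitrary units, read on an Axon 4000B scanner. Transcription factors with N-terminal polyhistidine and DsRed fusions came from E. coli BL21-CodonPlus and were purified on Ni–NTA. They were incubated at 200 nM for 1 h at 25 °C on a custom Agilent array that had been made double-stranded with Cy5-dUTP, with 50 µM zinc acetate present, and the array was washed.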
With “ATATAAATTACAAATTTTGTCAGTAAAATTTGGAGGGTCACGGAGTCACCTAGTGCAG”, the binding signal is 28100 fluorescence intensity (a.u.). Regarding “GTTGATTACTTACTCCTACTGTTTGGGTTCACATCACAAGCGGAGTCACCTAGTGCAG”, the binding signal was 30300 fluorescence intensity (a.u.).

With “TGGTTGATTGCTCATAGTTCAAACGAATTCATGAAGTAACCGGAGTCACCTAGTGCAG”, the binding signal was 23800 fluorescence intensity (a.u.). For “ATGTTATGATGAGAAGATAGATAGAGAAATAGTATTTCAACGGAGTCACCTAGTGCAG” the value was 4610 fluorescence intensity (a.u.). Consider “CAATCAATCACCAAACGTGGGTCGTCTCAGAGATCGATCACGGAGTCACCTAGTGCAG”, for which the binding signal was 16000 fluorescence intensity (a.u.).

As to “TTCATCATTCAATTATACAATTTGATGGTCTTTCTTTGTTCGGAGTCACCTAGTGCAG”, the binding signal is 15700 fluorescence intensity (a.u.). For “GCATGTTGATTATACCAGTAAGTTTCACGCACGCACACCGCGGAGTCACCTAGTGCAG” the value was 13000 fluorescence intensity (a.u.); for “AATAAGCACATCAATCAGTTATCCTTTTGGGACTTCTTAACGGAGTCACCTAGTGCAG”, 5810 fluorescence intensity (a.u.). For “GACGAGAGATTCAAATGTAAAAGTTAACCTAATGAAAACTCGGAGTCACCTAGTGCAG” the value was 10900 fluorescence intensity (a.u.); for “AGCAAGCTTAATTAGCAGCCACACATTAGAGTCACAAAGTCGGAGTCACCTAGTGCAG”, 5890 fluorescence intensity (a.u.). As to “GAGATTAAATCTAATCATCGAAATCACCATCATCTCGACACGGAGTCACCTAGTGCAG”, the binding signal is 30100 fluorescence intensity (a.u.). Then “CAGCTGGAATATTATTGTGATTGACAAAAGCATGTTCCTTCGGAGTCACCTAGTGCAG”, with 34800 fluorescence intensity (a.u.); and “TGTATGACTTGATTTCTTTTATCTAGCATGATTTATTTGTCGGAGTCACCTAGTGCAG”, with 6180 fluorescence intensity (a.u.). For “AAAACCATCATCAATCAGTGCATGAACAACATCAATGATCCGGAGTCACCTAGTGCAG” the value was 17100 fluorescence intensity (a.u.). For “GGCCTAAACTGCCACGATTGAAGGCCCATACTCCCCTACACGGAGTCACCTAGTGCAG” the value was 5420 fluorescence intensity (a.u.). With “GGGTAGATAGATATTAGGTAAAGGGACTCGGTAGAGAGAGCGGAGTCACCTAGTGCAG”, the binding signal is 3150 fluorescence intensity (a.u.). Then “TTTCTGATTTACGTGGCTTGTGAGTAGGGCGCCTCCTCATCGGAGTCACCTAGTGCAG”, with 8000 fluorescence intensity (a.u.); and “TACTAAGATAGATAGATAGTACATGTGATGCCAAGATGTTCGGAGTCACCTAGTGCAG”, with 3980 fluorescence intensity (a.u.); and “GTAATAAAATTGAACTTTAATTTACTCTACATCCAATTCACGGAGTCACCTAGTGCAG”, with 6140 fluorescence intensity (a.u.). For “ATAAATTGAGGTGAGGCCTCTCCTCACCTTCCTAAACACCCGGAGTCACCTAGTGCAG” the value was 8040 fluorescence intensity (a.u.); for “AAAATTACATACTAATTACATATGTAAGTGAGGTGTAAATCGGAGTCACCTAGTGCAG”, 13000 fluorescence intensity (a.u.). On to “ACTAATAATAAAACTAATTACAGAATCCGTCAGTAAACCACGGAGTCACCTAGTGCAG”, for which the binding signal was 14900 fluorescence intensity (a.u.). For “TGATTATCAATCTGACGATATCTGTAAGATGAAGCCTCTTCGGAGTCACCTAGTGCAG”, the binding signal was 3310 fluorescence intensity (a.u.). Then “TATGTCCTGATTAGTTCTGGTCTACTGGTATGCTGTTTGCCGGAGTCACCTAGTGCAG”, with 3980 fluorescence intensity (a.u.). Then “CTGAAATAACTTAGCTAACTGATTCATCATTTCAGAAGTGCGGAGTCACCTAGTGCAG”, with 14500 fluorescence intensity (a.u.); and “TCTGATGATTCCGCTGTTTGTTCATCAGATTTCCCATTATCGGAGTCACCTAGTGCAG”, with 9220 fluorescence intensity (a.u.). Turning to “CCTTAATGATAAACACGAAGAAAATTAAATACTCCCTCCCCGGAGTCACCTAGTGCAG”, the binding signal was 15200 fluorescence intensity (a.u.). Then “TTTGAGTTTTGACTGACAAGGATTTGCATTGCAAACTCGGCGGAGTCACCTAGTGCAG”, with 3940 fluorescence intensity (a.u.); and “ATATAATCATCTCTATGATTGCCTCTAGGGCATATCACTACGGAGTCACCTAGTGCAG”, with 33900 fluorescence intensity (a.u.). Then “ATGTTATAATTGGATGAGAAGTATAGGTAAATGAGGAAATCGGAGTCACCTAGTGCAG”, with 12800 fluorescence intensity (a.u.); and “CCACACAATCAACGCCATGATTACATTGCACTTGTCGTATCGGAGTCACCTAGTGCAG”, with 23100 fluorescence intensity (a.u.); and “GTAAACAAAATGCGTAATCATGTCGCAACTTGATCAAGAGCGGAGTCACCTAGTGCAG”, with 6220 fluorescence intensity (a.u.). For “ATGTAATTAGCTCAAGCCAAAGACATCTAAACTAGCTACCCGGAGTCACCTAGTGCAG” the value was 21400 fluorescence intensity (a.u.); for “CCTGACAGGGGATGTCATCTCACGCGCCGCATTCGGCAGCCGGAGTCACCTAGTGCAG”, 18100 fluorescence intensity (a.u.); for “CTATTATTTTAATCAATATTCATTTCTGTGCAAGTGGCATCGGAGTCACCTAGTGCAG”, 4260 fluorescence intensity (a.u.).

“AATCACGGATTAGAGCCCTAATCACGCCGCCCGCGTAATTCGGAGTCACCTAGTGCAG”: the binding signal was 3450 fluorescence intensity (a.u.).

“TGCTTGGTGATTTAATTTATTAGACTATTATCCTTTTAGACGGAGTCACCTAGTGCAG”: the binding signal was 14300 fluorescence intensity (a.u.).

Regarding “TCCTGTAACAGAATTGGAAAACCCAATCTGGCGACGGCTGCGGAGTCACCTAGTGCAG”, the binding signal was 9790 fluorescence intensity (a.u.). Regarding “AGTACATGATGTGACATTATCTGTTACTACGATTCTGGACCGGAGTCACCTAGTGCAG”, the binding signal is 3410 fluorescence intensity (a.u.). Regarding “GAACCCGTCTATCTAAATTTAAATCCTAGATTACTGGGTTCGGAGTCACCTAGTGCAG”, the binding signal is 5340 fluorescence intensity (a.u.). For “TGACATAATTAGGCTTAAAAGATTCGTCTCGCAATTTTCTCGGAGTCACCTAGTGCAG” the value was 8850 fluorescence intensity (a.u.). In the case of “GTGGTTCAATCAAACGGTCATTCCTGTGTTTTGCAATCCGCGGAGTCACCTAGTGCAG”, the binding signal was 14100 fluorescence intensity (a.u.).
